Measured values published in PMC4336329 (PLoS ONE, 2015).
The campaign covered roughly 310,000 compounds. About 2,200 (0.71%) showed an effect of 50% or more. The effect is printed as a negative number. Some of the results follow.

target: human ether-à-go-go-related gene (hERG) potassium channel (human, UniProt Q12809); experiment: primary screen, population patch clamp on CHO cells stably expressing hERG
Sequence (Q12809 whole entry, looked up): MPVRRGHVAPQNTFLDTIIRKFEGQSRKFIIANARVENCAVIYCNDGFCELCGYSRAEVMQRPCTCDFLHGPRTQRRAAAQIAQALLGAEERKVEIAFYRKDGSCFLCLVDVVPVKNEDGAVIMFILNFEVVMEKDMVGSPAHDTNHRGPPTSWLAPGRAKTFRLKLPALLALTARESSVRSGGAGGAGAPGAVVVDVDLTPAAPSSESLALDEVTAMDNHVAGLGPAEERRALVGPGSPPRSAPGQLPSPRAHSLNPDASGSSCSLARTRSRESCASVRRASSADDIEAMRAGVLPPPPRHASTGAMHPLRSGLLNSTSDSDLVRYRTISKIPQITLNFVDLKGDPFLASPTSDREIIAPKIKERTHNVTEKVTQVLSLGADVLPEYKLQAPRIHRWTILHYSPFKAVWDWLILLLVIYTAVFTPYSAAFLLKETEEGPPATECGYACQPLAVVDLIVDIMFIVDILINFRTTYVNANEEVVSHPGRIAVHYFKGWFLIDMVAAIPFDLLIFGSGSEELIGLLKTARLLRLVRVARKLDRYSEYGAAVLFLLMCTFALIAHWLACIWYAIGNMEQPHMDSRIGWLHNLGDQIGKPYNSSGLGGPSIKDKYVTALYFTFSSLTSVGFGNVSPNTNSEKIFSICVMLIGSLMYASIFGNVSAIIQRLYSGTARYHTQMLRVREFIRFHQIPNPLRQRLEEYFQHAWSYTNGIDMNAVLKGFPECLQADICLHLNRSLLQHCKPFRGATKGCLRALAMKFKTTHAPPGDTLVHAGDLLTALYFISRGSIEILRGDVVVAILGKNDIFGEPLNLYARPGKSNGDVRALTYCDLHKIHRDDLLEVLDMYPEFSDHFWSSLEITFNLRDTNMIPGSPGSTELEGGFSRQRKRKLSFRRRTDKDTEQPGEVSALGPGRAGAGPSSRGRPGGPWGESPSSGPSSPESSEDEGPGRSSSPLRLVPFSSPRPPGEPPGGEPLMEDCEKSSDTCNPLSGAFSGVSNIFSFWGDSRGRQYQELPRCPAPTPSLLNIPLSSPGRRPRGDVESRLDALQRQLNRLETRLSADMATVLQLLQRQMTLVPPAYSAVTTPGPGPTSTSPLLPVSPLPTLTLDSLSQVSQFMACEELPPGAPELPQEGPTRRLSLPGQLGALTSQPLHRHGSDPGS

Row | Structure (SMILES) | hERG current change (%, negative = inhibition) at 1uM
1 | CC(C)OC(=O)c1ccc(N2C(=O)C3CC=CCC3C2=O)cc1 (stereo not drawn) | 22.7%
2 | CCCC1S/C(=N/N=C/c2ccco2)NC1=O (stereo not drawn) | -2.31%
3 | CCN(c1cccc(C)c1)S(=O)(=O)c1ccc(-n2cccn2)cc1 | 10.2%
4 | O=C(NCc1nc2ccccc2[nH]1)c1ccccc1F | 14%
5 | Cc1cc(C(=O)C(C)OC(=O)C2=NNC(=O)CC2)c(C)n1-c1ccc(OC(F)F)cc1 (stereo not drawn) | 1.87%
6 | O=C(COc1ccccc1)NS(=O)(=O)c1ccccc1 | 5.6%
7 | Cc1cc(C)n(-c2nc3ccccc3nc2N2CCN(C(=O)c3ccc(Cl)cc3)CC2)n1 | 10.6%
8 | O=C(CSC1=NS(=O)(=O)c2cc(F)ccc2N1)NCc1ccc(F)cc1 | -0.235%
9 | Cn1cnnc1SCC(=O)c1c(N)n(Cc2ccccc2)c(=O)n(C)c1=O | 10.6%
10 | COc1ccc(NC(=O)c2c([N+](=O)[O-])c(C(C)(C)C)nn2C)cc1 | 14.2%
11 | O=C(Nc1ccc(Br)cc1)c1cccc(OC(=S)N2CCOCC2)c1 | 8.6%
12 | C/C(CC(=O)Nc1ccc2c(c1)OCCO2)=N\NC(=O)c1cccc(O)c1 | 14.6%
13 | Brc1ccc(C=Nc2ccc(Nc3ccccc3)cc2)s1 | 14.7%
14 | Cc1ccccc1NC(=O)CSc1nn2c(=O)c(C)nnc2s1 | 8.3%
15 | Cc1nc(SCC(=O)NC2CC2)c2c(C)c(C)sc2n1 | 12.4%
16 | Cc1c(OC(C)C(=O)N2C[C@H]3C[C@@H](C2)c2cccc(=O)n2C3)ccc2c3c(c(=O)oc12)CCCC3 (stereo partly drawn) | 5.92%
17 | Cc1nc(-c2cccc(S(=O)(=O)N3CCCCCC3)c2)cs1 | 4.09%
18 | COCCCN=Cc1c(C)[nH]n(-c2ccc(Br)cc2Br)c1=O | 16.4%
19 | CC(c1nnnn1C(C)(C)C)N(Cc1cccnc1)Cc1ccccc1Cl (stereo not drawn) | -1.02%
20 | COc1ccccc1-n1nnnc1SCC(=O)Nc1ccccc1 | 17.5%
21 | Cc1oc(-c2cc(F)ccc2F)nc1CN1CCC(C(=O)N2CCOCC2)CC1 | -22.9%
22 | O=C(Nc1ccc(F)c(Cl)c1)Nc1ccc(Cl)cn1 | 7.89%

Row | Structure (SMILES) | hERG current change (%, negative = inhibition) at 1uM
23 | N#Cc1cccc(CN2CCCN(Cc3ccc(F)cc3)S2(=O)=O)c1 | 0.861%
24 | O=C(CSc1ccc(-c2ccccn2)nn1)N1CCc2ccccc21 | 8.73%
25 | COc1ccc(NC(=O)CSc2ccccc2)cn1 | 10.7%
26 | CCCS(=O)(=O)N1CCC(C(=O)NCCN2CCCC2)CC1 | -1.86%
27 | COC(=O)c1cn(NC(=O)Cc2ccc(Cl)cc2)c(=O)c2ccccc12 | -9.51%
28 | CCc1ccc(N2C(=O)CC(Cn3nc(C)cc3C)C2=O)cc1 (stereo not drawn) | 5.97%
29 | Cc1ccsc1/C=C/c1ccc2ccccc2n1 | 3.71%
30 | NC(=O)c1ccc(-n2nnnc2Oc2ccccc2)cc1 | 12.2%
31 | CCOc1ccc(NC(=O)n2ncc3c(C)cccc32)cc1 | 15.5%
32 | CCC(=O)c1cc2c(cc1NC(=O)c1ccc(C)cc1)OCCO2 | 11.1%
33 | O=C(Nc1ccccc1F)C1CCN(C(=O)Cc2ccccc2)CC1 | 8.08%
34 | O=C(/C=C\c1ccccc1OC(=O)c1ccccc1F)c1cc2ccccc2o1 | 3.89%
35 | CCOC(=O)C1CCCN(c2c(NCCN(C)Cc3ccccc3)c(=O)c2=O)C1 (stereo not drawn) | 7.67%
36 | Cc1cc(-c2ccc(C)c(S(=O)(=O)NCc3ccc(OC(C)C)cc3)c2)on1 | 7.33%
37 | CCOC(=O)Cn1nnnc1C(C(C)C)N(Cc1cccs1)Cc1cc2cc(C)ccc2[nH]c1=O (stereo not drawn) | 2.89%
38 | NC(=O)C1CC(=O)N(c2ccc(OCc3ccc([N+](=O)[O-])cc3)cc2)C1 (stereo not drawn) | 11.8%
39 | O=C(O)COc1ccc(/C=N/NC(=O)c2ccccc2Br)cc1 | 12.8%
40 | CS(=O)(=O)N(CC(=O)N1CCOCC1)c1ccccc1Br | 13%
41 | CCOC(=O)c1cc(-c2ccc(C)cc2)nc2nc(SC)[nH]c(=O)c12 | 14.9%
42 | CC(NC(=O)CSc1nnc(-c2cccc(S(=O)(=O)N3CCCCC3)c2)o1)C12CC3CC(CC(C3)C1)C2 (stereo not drawn) | 8.71%
43 | COc1ccc(-c2ccc(=O)[nH]n2)cc1 | -4.86%
44 | CCCCN1C(=O)/C(=C(/C#N)C(=O)N2CCCC2)c2ccccc21 | 4.53%

Row | Structure (SMILES) | hERG current change (%, negative = inhibition) at 1uM
45 | O=C(Nc1nc(-c2ccccc2Cl)cs1)c1cccnc1 | 4.43%
46 | COCCNC(=O)C1Cc2cc(S(=O)(=O)N3CCCC3)ccc2N1C(C)=O (stereo not drawn) | 12.2%
47 | COc1ccc(S(=O)(=O)N2CCOCC2)cc1NC(=O)COc1ccccc1OC | 21.2%
48 | O=C(C1=C[C@H](C2CC2)C[C@H](OCc2ccc(CO)cc2)O1)N1CCN(Cc2ccc3c(c2)OCO3)CC1 | -7.21%
49 | Cc1ccc(S(=O)(=O)c2cc3c(=O)n4ccccc4nc3n(Cc3ccco3)c2=N)cc1C | -6.2%
50 | Cc1cc(NC(=O)CO/N=C/c2ccc3c(c2)OCO3)ccc1Br | 14.7%
51 | C/C(=N\NC(=O)c1cccnc1)c1ccc(OC2OCCOC2Oc2ccc(/C(C)=N/NC(=O)c3cccnc3)cc2)cc1 (stereo not drawn) | -0.665%
52 | Cc1[nH]c2ccccc2c1C(=O)CN1CCSCC1 | 7.96%
53 | O=C(Cn1nc(-c2ccccc2)c2ccccc2c1=O)Nc1ccc(O)cc1 | 0.253%
54 | Cc1ccc(NS(=O)(=O)c2ccc(Cl)s2)cc1S(=O)(=O)N(C)C | 7.95%
55 | CCCc1cc(C(=O)NNC(=S)NC(C)c2ccccc2)cs1 (stereo not drawn) | 6.74%
56 | Cc1ccc(CCN2CC(C(=O)NCc3ccco3)CC2=O)cc1 (stereo not drawn) | 11.3%
57 | Cc1cc(C)n(-c2nc(NCCN(C)C)c3c4c(sc3n2)COC(C)(C)C4)n1 | 1.96%
58 | Cc1nn2cnnc2c(C)c1Cc1ccc(Cl)cc1 | 9.11%
59 | COc1ccccc1N1CCN(C(=O)c2ccc(C(C)(C)C)cc2)CC1 | -7.36%
60 | COc1ccc(CCNC(=O)C(=O)NCc2ccccn2)cc1 | 11.9%
61 | O=C1c2ccccc2CCC1C(O)c1ccccn1 (stereo not drawn) | 12.7%
62 | CCn1c(Cc2ccccc2)nnc1SCC(=O)Nc1ccccc1F | 3.1%
63 | CN(Cc1cccc(Cl)c1Cl)CC(O)COc1ccccc1.O=C(O)C(=O)O (stereo not drawn) | 7.55%
64 | C=CCn1c(N/N=C/c2ccc(O)cc2)nc2ccccc2c1=O | -5.61%
65 | Cc1nc2ccccc2cc1C(=O)NCc1ccco1 | 10.3%
66 | CC(=O)N(C1=C(N)C(=O)c2ccccc2C1=O)c1ccccc1 | 8.45%

Row | Structure (SMILES) | hERG current change (%, negative = inhibition) at 1uM
67 | COCCSc1ccccc1C(=O)N1CCN(c2ccccc2OC)CC1 | 9.68%
68 | CCO/C=C1\C(=O)N(c2ccc(OCC)cc2)C(=O)c2ccccc21 | 19.3%
69 | COc1ccc(CNC(=O)c2ccc(CS(=O)(=O)c3ccc(C)cc3)o2)cc1 | 10%
70 | c1c2c(cc3sc(N4CCOCC4)nc13)OCO2 | 15.3%
71 | Cc1ccc2nc3sc(C(=O)N4CCOCC4)c(N)c3cc2c1 | 9.05%
72 | Cc1ccccc1NNC(N)=S | 0.34%
73 | O=S(=O)([N-]c1nc2ccccc2nc1-[n+]1ccc(CCCc2ccccc2)cc1)c1cccs1 | 5.16%
74 | COc1cc2c(cc1OC)CN(C(=O)COc1ccc(C#N)cc1)CC2 | -31.1%
75 | C=CCn1c(SCC(=O)c2cccs2)nc2sc(C)cc2c1=O | 7.02%
76 | CC1=Nc2nc(N3CCCCC3)c(C#N)c3c4c(nc(c23)N1)N(c1ccc(C(C)C)cc1)C(=O)C4.CN(C)C=O | 9.43%
77 | CCOC(=O)C1CCCN(CC(O)COCc2ccccc2OC)C1 (stereo not drawn) | 10.6%
78 | CCOC(=O)C1(CCOC)CCN(C/C=C/c2ccccc2OC)CC1 | -5.39%
79 | CCCCS(=O)(=O)Nc1ccc2c(c1)ncn2C1CCCCC1 | -4.33%
80 | Cc1nnc(NC(=O)CSc2nnnn2Cc2ccccc2)s1 | 3.64%
81 | CS(=O)(=O)N(Cc1cccc(CN(C(C(=O)O)c2ccccc2)S(C)(=O)=O)c1)C(C(=O)O)c1ccccc1 (stereo not drawn) | 16.9%
82 | COc1cc2[nH]c(C(=O)NN)c(N)c2cc1OC | 14.7%
83 | COc1ccc(NC(=O)[C@H](C)NC(=O)[C@@H]2Cc3ccccc3CN2C(=O)OC(C)(C)C)cc1 | 19%
84 | Cc1ccc(S(=O)(=O)N(C)C)cc1NC(=O)COC(=O)/C=C/c1cnc2ccccc2n1 | 20%
85 | Cc1ccc2c(=O)n3c(nc2c1)C(Cc1ccccc1)NC(=O)c1ccc(Cl)cc1-3 (stereo not drawn) | 10.3%
86 | CC(C)n1c(O)c(C=NCc2ccccc2)c(=O)[nH]c1=S | 17.3%
87 | CC(C)(C)OC(=O)NCCCC[C@H](NC(=O)c1nc[nH]c1C(=O)NC(c1ccccc1)c1ccccc1)C(=O)OC(C)(C)C | 7.55%
